Source: the supplement of paper PMC10126150
Values marked as one replicate rest on one cluster of the flow cell; about a third of the high ones do not repeat.
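Also: ATP exposure 15 min at 22 °C before imaging.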

These sequences were tested on ATP (assay: switch fluorescence ratio, 500 uM ATP over buffer (Cy3 cluster intensity, sum of 5 cycles each) (fold (ratio)); higher = stronger signal-on switching upon ATP binding; sequences stand for … in TCGTCGGCAGCGTCAGATGTGTATAAGAGACAGTTTTTTTTTTTTTTTTTTTTTTTTT…TC). Details: aptamer strand: ATP DNA aptamer (quencher-CACCTGGGGGAGTATTGCGGAGGAAGG + anchor), 100 nM annealed; ATP concentration: 500 uM; one replicate.
Procedure, shortened: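 Switching-strand clusters labelled with Cy3 on a modified Illumina MiSeq flow-cell were annealed to 100 nM quencher-labelled ATP aptamer, imaged in selection buffer, and re-imaged after 15 min with 500 uM ATP at 22 °C. This was done over five cycles with NaOH stripping and re-annealing in between. The fluorescence ratio is summed target-cycle over summed buffer-cycle Cy3 intensity per cluster, averaged per switch-domain sequence, excluding clusters outside 100-1000 RFU.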
Sequence ACAAGACTAC has a switch fluorescence ratio of 1.16. With TACCTATTTA the switch fluorescence ratio was 1. CGATCGTTCT gave a switch fluorescence ratio of 0.979. Sequence GTACTCCAGG has a switch fluorescence ratio of 2.15. In the case of AATGAAGGGA, the switch fluorescence ratio is reported as 0.983. TTTTACGGG showed a switch fluorescence ratio of 1.01. TTGCACGGGG showed a switch fluorescence ratio of 1.03. GATGGCTCAA was tested, and the switch fluorescence ratio was 0.976. For TTGGAACTAT, the switch fluorescence ratio was 1.05. CCTTGGTACT was tested, and the switch fluorescence ratio was 1.13. CCTTATATCA showed a switch fluorescence ratio of 1.06. GCTTGCATCC was tested, and the switch fluorescence ratio was 1.01. For GATACTCCGA, the switch fluorescence ratio was 1.09. In the case of TTACCGGTCG, the switch fluorescence ratio is reported as 1.02. TTGTTGAGTT was tested, and the switch fluorescence ratio was 1.02. TTTAGCGTC gave a switch fluorescence ratio of 1.02. AGTACGAGGG showed a switch fluorescence ratio of 0.993. Sequence CTCGTACCAA has a switch fluorescence ratio of 1.11. With TTTGCGAATT the switch fluorescence ratio was 1.02. With CACGGTGTTG the switch fluorescence ratio was 1.05. Work on CCTCAATGTG yielded a switch fluorescence ratio of 1.24. Sequence GCACGGCACG has a switch fluorescence ratio of 1.04. Sequence CTAGAATGGG has a switch fluorescence ratio of 0.979. In the case of TCCTCGGACT, the switch fluorescence ratio is reported as 1.31. Sequence TCTGACCCCT has a switch fluorescence ratio of 1.13. Work on CAGACCTAAA yielded a switch fluorescence ratio of 1.03. ATGTCTGAG showed a switch fluorescence ratio of 0.96. With ATGGCGGGCC the switch fluorescence ratio was 1.01. With TTGTTTTAGA the switch fluorescence ratio was 0.963. In the case of CCGTCAGATT, the switch fluorescence ratio is reported as 1.06. Sequence GGCGTAAA has a switch fluorescence ratio of 0.946. GTATGAGATG was tested, and the switch fluorescence ratio was 0.974. Work on CGACGAGGGC yielded a switch fluorescence ratio of 1.78. In the case of CAACAATGCC, the switch fluorescence ratio is reported as 1.02. ACTTCTGAAT gave a switch fluorescence ratio of 1. GTGAACGCAT gave a switch fluorescence ratio of 2.65. GGGAACTTTA gave a switch fluorescence ratio of 1.02. For GGTATTTAAG, the switch fluorescence ratio was 1.01. GACGTACAGT showed a switch fluorescence ratio of 1.47. TAGAGGGCCT was tested, and the switch fluorescence ratio was 1.01. CCCATTTTAG was tested, and the switch fluorescence ratio was 1.02. CAAGGAGTG gave a switch fluorescence ratio of 0.992. Work on GATGGTGGA yielded a switch fluorescence ratio of 1.06. GTCTATCTCC showed a switch fluorescence ratio of 1.1. Sequence TAGACACTTG has a switch fluorescence ratio of 1.03. For GAAATTGCCA, the switch fluorescence ratio was 0.979. GAGCACGGGG gave a switch fluorescence ratio of 1.18. For ACAGCGATT, the switch fluorescence ratio was 1.06. Sequence TCCCACATTT has a switch fluorescence ratio of 1.01. In the case of AATGGGAACT, the switch fluorescence ratio is reported as 0.971. CATAGAATGT showed a switch fluorescence ratio of 0.993. AGTATGTGTT gave a switch fluorescence ratio of 0.985. TATGGGAGCC gave a switch fluorescence ratio of 1.05. For GAGAGTATTA, the switch fluorescence ratio was 1.07. TCCGCCGCT gave a switch fluorescence ratio of 3.41. AGGCATGTTC was tested, and the switch fluorescence ratio was 0.981. Sequence AATAACGTGA has a switch fluorescence ratio of 1.01. Sequence GCTCTATGTT has a switch fluorescence ratio of 0.986. Sequence TTTCCATGAT has a switch fluorescence ratio of 1.09. TATGTGCTCC showed a switch fluorescence ratio of 1.02. AAATACCCGT showed a switch fluorescence ratio of 1.13. TAAAGCCCCA gave a switch fluorescence ratio of 0.965. Work on GGGATATACG yielded a switch fluorescence ratio of 1.04. TAACCCTCAT was tested, and the switch fluorescence ratio was 1.21. In the case of CGTGTATCAA, the switch fluorescence ratio is reported as 1.04. In the case of ACATATTCCA, the switch fluorescence ratio is reported as 1.04. Sequence AAACGGGCCT has a switch fluorescence ratio of 1.07. With GCTGGTTGCA the switch fluorescence ratio was 1.04. GAAGGGTAGG gave a switch fluorescence ratio of 1.04. Sequence ACCTTTTCGC has a switch fluorescence ratio of 1.58. TGGCGATCCG gave a switch fluorescence ratio of 1.03. AGAGACGGTT was tested, and the switch fluorescence ratio was 0.999. For GTTATAGAAG, the switch fluorescence ratio was 1. In the case of AATCGCCCCT, the switch fluorescence ratio is reported as 1.07. CTGATCAAGC showed a switch fluorescence ratio of 1.13. For ACGGTTATCG, the switch fluorescence ratio was 1.01. TATGCAAG was tested, and the switch fluorescence ratio was 1.07. For GGAAGTATCC, the switch fluorescence ratio was 1.04. In the case of GAAGTGGCGG, the switch fluorescence ratio is reported as 0.993. In the case of TGAGTATGAT, the switch fluorescence ratio is reported as 0.965. ACTAAAACAC gave a switch fluorescence ratio of 1.19. CGAAAAATAT was tested, and the switch fluorescence ratio was 1.04. ATACTTGTAC gave a switch fluorescence ratio of 1.17. In the case of TATGAATTTT, the switch fluorescence ratio is reported as 0.977. In the case of GTTTATTGCA, the switch fluorescence ratio is reported as 0.962. For TATGGTCGGA, the switch fluorescence ratio was 0.96. For TTTTTAATG, the switch fluorescence ratio was 0.958. GATTCTGTCT gave a switch fluorescence ratio of 1.06. TAACGTTAGG was tested, and the switch fluorescence ratio was 1.01. With TAGGTACTGT the switch fluorescence ratio was 1.03. ACACATTTTA gave a switch fluorescence ratio of 1.06. For TTAGCTCGGT, the switch fluorescence ratio was 1.01. With TAGCCGGCAT the switch fluorescence ratio was 0.98. CGGGACGTGA gave a switch fluorescence ratio of 1.01. For GGAGCGTTC, the switch fluorescence ratio was 1.45. For TCTATACTCT, the switch fluorescence ratio was 1.06. TGGTCGATTC was tested, and the switch fluorescence ratio was 0.985. TGCGATATAA showed a switch fluorescence ratio of 1.01. CGGGTACTGA was tested, and the switch fluorescence ratio was 0.985. With GGGGCTGTTT the switch fluorescence ratio was 0.984. Work on AGTGAGCAA yielded a switch fluorescence ratio of 1.62. TTGTTGCAAT showed a switch fluorescence ratio of 1.15. ATATTGAGTT was tested, and the switch fluorescence ratio was 1.31. Sequence TAGCTGTCGG has a switch fluorescence ratio of 1. With CGGTGACTCT the switch fluorescence ratio was 1.02. AATTCCGGTT showed a switch fluorescence ratio of 1. With GGGTGCAGCA the switch fluorescence ratio was 1.24. Sequence ATCTGCATTC has a switch fluorescence ratio of 2.48. Sequence ACGGAACCCA has a switch fluorescence ratio of 1.17. Sequence GGCTGTGGTC has a switch fluorescence ratio of 0.983. With CAGAGTACAG the switch fluorescence ratio was 0.991. Sequence TCGTACTATT has a switch fluorescence ratio of 0.964. In the case of ATAGCGACAC, the switch fluorescence ratio is reported as 2.13. For ATGGAACTGC, the switch fluorescence ratio was 1.02. GACACTAAAT was tested, and the switch fluorescence ratio was 1.03. For AATCGGGACT, the switch fluorescence ratio was 1.01. GGTGCTTCGT was tested, and the switch fluorescence ratio was 0.987. In the case of TTGCTGATCA, the switch fluorescence ratio is reported as 0.988. GACTTTCTGG showed a switch fluorescence ratio of 0.981. GACGGTGACA gave a switch fluorescence ratio of 1.09. GCGCCAACC was tested, and the switch fluorescence ratio was 1.06. CTGGCCGTAA gave a switch fluorescence ratio of 1.24. For TGTTGAAGTA, the switch fluorescence ratio was 0.983. In the case of GCACATGTCG, the switch fluorescence ratio is reported as 0.938. For CTTTAAGCAT, the switch fluorescence ratio was 1.08. TACCAAAGGA showed a switch fluorescence ratio of 1.02. In the case of ACGTCTGAAA, the switch fluorescence ratio is reported as 1.06. With GGAACGATCA the switch fluorescence ratio was 1.03. In the case of ATCGTCCGTG, the switch fluorescence ratio is reported as 1.06. Sequence ACGGTGGTTA has a switch fluorescence ratio of 0.976. GGCGCGTAGG was tested, and the switch fluorescence ratio was 1.03. With GATGAGGAGC the switch fluorescence ratio was 1.02. CAGTGAGCTG showed a switch fluorescence ratio of 0.969. In the case of ACATCAGAG, the switch fluorescence ratio is reported as 0.989. With ATTGATTGGG the switch fluorescence ratio was 0.996. AATAGCTAAG gave a switch fluorescence ratio of 1.02. Work on AAAATGAACC yielded a switch fluorescence ratio of 1.01. Work on CTTAGGCTGC yielded a switch fluorescence ratio of 0.997. For GGCGATCGGG, the switch fluorescence ratio was 1.03. TGTGGGTCTA was tested, and the switch fluorescence ratio was 0.984. With CGCGTTAGCG the switch fluorescence ratio was 0.98. CCGGGTTAAT gave a switch fluorescence ratio of 1.13. TCCACTTAGA showed a switch fluorescence ratio of 0.988. For CTACTACGAG, the switch fluorescence ratio was 1.04. Sequence AATGATCTTA has a switch fluorescence ratio of 1.04. For CAAGGTATTC, the switch fluorescence ratio was 0.978. Work on ACACGCGGAA yielded a switch fluorescence ratio of 1.06. For TCTCACCGAC, the switch fluorescence ratio was 1.59. With ATCCAGTCTG the switch fluorescence ratio was 0.992. With TTAAAGGACA the switch fluorescence ratio was 1.04. ACTGACGCAA showed a switch fluorescence ratio of 1.36. In the case of CGCGTGGCTC, the switch fluorescence ratio is reported as 1.06. For TGGGGTAA, the switch fluorescence ratio was 1.05. TCGCCCTATC gave a switch fluorescence ratio of 1.08. CGATGTGGG was tested, and the switch fluorescence ratio was 1.01. AATCGGCGGT gave a switch fluorescence ratio of 0.998. TCTAGTAGTA showed a switch fluorescence ratio of 0.999. Work on TACGAGTAAT yielded a switch fluorescence ratio of 1.01. CATTTCATCT was tested, and the switch fluorescence ratio was 0.999. In the case of CTCTACTTCC, the switch fluorescence ratio is reported as 2.15. Sequence TTAGTACTCG has a switch fluorescence ratio of 0.993. With GGAGCATATT the switch fluorescence ratio was 1.72. TCCTCGTTAT showed a switch fluorescence ratio of 0.999. For TGCTGACAAG, the switch fluorescence ratio was 0.99. With CAGACTTGGG the switch fluorescence ratio was 0.968. Work on GATGCTCCGT yielded a switch fluorescence ratio of 1.09. For GCCAATTCGC, the switch fluorescence ratio was 1.08. Work on CAACAGGATT yielded a switch fluorescence ratio of 1. For TAGACTGTTT, the switch fluorescence ratio was 0.982. Sequence TAGTTGTG has a switch fluorescence ratio of 0.968. Sequence GATGTGGGAA has a switch fluorescence ratio of 0.955. Sequence CATGAAATGG has a switch fluorescence ratio of 1.01. Sequence ATTCGGCTGG has a switch fluorescence ratio of 0.994. With AGGCCCGAAC the switch fluorescence ratio was 1.08. For GTAATAGGAA, the switch fluorescence ratio was 1.02. Sequence TTTATCCGCT has a switch fluorescence ratio of 1.42. AGCCCGGAC gave a switch fluorescence ratio of 1.09. In the case of CTGCTCAGCT, the switch fluorescence ratio is reported as 1.01. GCTTGGGG was tested, and the switch fluorescence ratio was 0.962. GTGCTCAGA showed a switch fluorescence ratio of 0.971. Work on AGAATGAGCT yielded a switch fluorescence ratio of 0.998. For CCATTTGTAT, the switch fluorescence ratio was 1.02. TACAGGTATT gave a switch fluorescence ratio of 1.05. GGGCTATTAC was tested, and the switch fluorescence ratio was 1.53. TATCTGAGTA was tested, and the switch fluorescence ratio was 1.01. AGATCGGACA was tested, and the switch fluorescence ratio was 1.03. AGCGCCTCTA showed a switch fluorescence ratio of 0.958. TTTGAGAACA was tested, and the switch fluorescence ratio was 1. Sequence TGCGCGGAGT has a switch fluorescence ratio of 0.98. GAACCCTTGG was tested, and the switch fluorescence ratio was 1.03. ACTGACGGGT gave a switch fluorescence ratio of 1.11. Work on ATTGTTTGAA yielded a switch fluorescence ratio of 0.996. GCGCACCACT was tested, and the switch fluorescence ratio was 1.18. TTTTTGACAG gave a switch fluorescence ratio of 1.06. Work on GACTCAAGGT yielded a switch fluorescence ratio of 1.07. ACGATACATT showed a switch fluorescence ratio of 1.27. With CTACTACCCT the switch fluorescence ratio was 1.16. For GTGACTGCGG, the switch fluorescence ratio was 0.925. Work on GTTATCGCCG yielded a switch fluorescence ratio of 1.01. TTCAGAGGGC was tested, and the switch fluorescence ratio was 1.06. ATTCCAGTTT showed a switch fluorescence ratio of 0.977.
